# Results as given in PMC3798688.
# By UniProt entry, the sequences of proteins in these tests, tags left out. Where a name states a change or a piece, a line headed by the entry shows the natural chain unless it says otherwise. Chains listed by the source or under a name are the forms on record and can include a tag or linker. Residues count along the entry.
# UniProt Q76SB0: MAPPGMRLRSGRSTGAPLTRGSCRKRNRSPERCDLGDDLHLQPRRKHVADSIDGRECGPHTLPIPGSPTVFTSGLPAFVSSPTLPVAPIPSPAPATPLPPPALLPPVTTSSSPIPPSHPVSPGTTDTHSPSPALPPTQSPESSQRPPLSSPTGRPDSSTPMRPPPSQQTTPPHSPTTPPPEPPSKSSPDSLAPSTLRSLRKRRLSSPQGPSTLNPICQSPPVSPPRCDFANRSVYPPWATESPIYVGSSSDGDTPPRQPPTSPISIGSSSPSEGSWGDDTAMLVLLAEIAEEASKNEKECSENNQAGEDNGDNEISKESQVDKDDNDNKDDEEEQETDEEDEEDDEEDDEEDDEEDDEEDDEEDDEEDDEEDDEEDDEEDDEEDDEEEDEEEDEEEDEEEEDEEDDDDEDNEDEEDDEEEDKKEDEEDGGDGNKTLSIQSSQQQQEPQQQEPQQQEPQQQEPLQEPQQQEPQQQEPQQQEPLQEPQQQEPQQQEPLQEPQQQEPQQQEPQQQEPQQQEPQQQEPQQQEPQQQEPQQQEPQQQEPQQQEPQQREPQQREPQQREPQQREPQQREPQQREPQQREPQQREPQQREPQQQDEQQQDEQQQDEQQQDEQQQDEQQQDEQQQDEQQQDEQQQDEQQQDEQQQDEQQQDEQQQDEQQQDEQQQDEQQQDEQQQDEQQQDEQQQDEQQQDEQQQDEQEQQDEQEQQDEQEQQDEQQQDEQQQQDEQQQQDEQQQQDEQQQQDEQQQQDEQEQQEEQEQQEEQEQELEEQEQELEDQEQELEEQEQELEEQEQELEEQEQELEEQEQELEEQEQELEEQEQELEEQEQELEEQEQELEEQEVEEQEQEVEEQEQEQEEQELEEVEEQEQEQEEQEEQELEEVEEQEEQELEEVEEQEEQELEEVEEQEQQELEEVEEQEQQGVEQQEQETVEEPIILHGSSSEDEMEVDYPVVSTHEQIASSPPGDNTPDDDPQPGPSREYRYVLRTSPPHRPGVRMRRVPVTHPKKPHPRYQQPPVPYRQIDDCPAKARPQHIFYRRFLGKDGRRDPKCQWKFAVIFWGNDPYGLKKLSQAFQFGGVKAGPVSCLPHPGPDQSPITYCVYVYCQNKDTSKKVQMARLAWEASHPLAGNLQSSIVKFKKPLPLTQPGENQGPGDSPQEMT
# GST-fused kLANA(934–1162) wt (Kaposi sarcoma-associated herpesvirus (KSHV)): residues 934-1162 of Q76SB0
# UniProt P25440: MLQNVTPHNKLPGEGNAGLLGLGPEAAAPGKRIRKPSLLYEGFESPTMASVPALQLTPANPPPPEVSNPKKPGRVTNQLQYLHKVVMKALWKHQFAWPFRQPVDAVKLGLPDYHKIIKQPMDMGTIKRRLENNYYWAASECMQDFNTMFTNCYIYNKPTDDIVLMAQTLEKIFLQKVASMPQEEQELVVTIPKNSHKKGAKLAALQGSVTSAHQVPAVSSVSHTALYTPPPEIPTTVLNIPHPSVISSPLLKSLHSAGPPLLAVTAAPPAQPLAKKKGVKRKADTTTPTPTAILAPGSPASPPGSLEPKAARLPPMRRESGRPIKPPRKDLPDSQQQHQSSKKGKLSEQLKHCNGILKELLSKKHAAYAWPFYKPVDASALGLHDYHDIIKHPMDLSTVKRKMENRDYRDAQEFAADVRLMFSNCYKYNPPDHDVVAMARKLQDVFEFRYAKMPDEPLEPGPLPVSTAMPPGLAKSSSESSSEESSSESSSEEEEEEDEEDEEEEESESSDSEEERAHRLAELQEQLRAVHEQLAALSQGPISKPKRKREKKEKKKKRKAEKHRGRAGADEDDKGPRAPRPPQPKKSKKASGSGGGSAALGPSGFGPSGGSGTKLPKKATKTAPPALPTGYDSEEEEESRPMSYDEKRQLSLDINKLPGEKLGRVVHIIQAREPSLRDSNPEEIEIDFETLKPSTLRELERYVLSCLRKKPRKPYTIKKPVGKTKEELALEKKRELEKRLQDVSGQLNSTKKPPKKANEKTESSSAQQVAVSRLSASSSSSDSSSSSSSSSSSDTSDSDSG
# GFP-tagged BRD2 C-terminal domain (CT; aa640-801): residues 640-801 of P25440
# GFP-tagged BRD2 ET domain (ET; aa640-719): residues 640-719 of P25440
# GFP-tagged BRD2(720–801): residues 720-801 of P25440
# No constants are given. Whether binding was seen depends on the method and setting. In cells and extracts the contact can be indirect. Some entries that bind do so weakly or less than the wild type.
# Experiments:
# [1] = target: GST-fused kLANA(934–1162) wt (Kaposi sarcoma-associated herpesvirus (KSHV)) (UniProt Q76SB0); test: pull-down; only the target purified
# GFP-tagged BRD2(720–801) = GFP-tagged BRD2(720–801) (UniProt P25440); test: co-IP; 293/293T cells co-transfected; lysis buffer 50 mM Tris pH 7.6, 60 mM NaCl, 0.5 mM EDTA, 1% glycerol, 0.2% NP-40; IP of GFP-BRD proteins with anti-GFP on Protein A beads, blot with anti-LANA
# GFP-BRD2 E689A = GFP-BRD2 E689A (UniProt P25440); test: as above
# GFP-BRD2 R648A = GFP-BRD2 R648A (UniProt P25440); test: as above
# GFP-BRD2 E685A = GFP-BRD2 E685A (UniProt P25440); test: as above
# GFP-BRD2 F688Y = GFP-BRD2 F688Y (UniProt P25440); test: as above
# GFP-BRD2 D687A = GFP-BRD2 D687A (UniProt P25440); test: as above
# [2] = target: GFP-tagged BRD2 C-terminal domain (CT; aa640-801) (UniProt P25440); test: as above
# [3] = target: GFP-tagged BRD2 ET domain (ET; aa640-719) (UniProt P25440); test: as above
# GFP-BRD2 E682A = GFP-BRD2 E682A (UniProt P25440); test: as above
# GFP-BRD2 E683A = GFP-BRD2 E683A (UniProt P25440); test: as above
# [4] = target: GFP-tagged full-length BRD2 wt (UniProt P25440); test: as above
substance,measurement,setting,value
full-length (FL) kLANA(1–1162) wt (from UniProt Q76SB0 1-1162),binding,[1],binds
same,binding,GFP-tagged BRD2(720–801),no binding
same,binding,GFP-BRD2 E689A,binds
same,binding,GFP-BRD2 R648A,binds
same,binding,GFP-BRD2 E685A,no binding
same,binding,GFP-BRD2 F688Y,no binding
same,binding,GFP-BRD2 D687A,no binding
same,binding,[2],binds
same,binding,[3],binds
same,binding,GFP-BRD2 E682A,no binding
same,binding,GFP-BRD2 E683A,no binding
same,binding,[4],binds
